Data reported in article PMC5661268.
Results are given in words; binding and its absence hold for the method and conditions named. Binding seen in cells or lysates may run through a third protein. Some entries that bind do so weakly or less than the wild type.

Amino acid sequences for entries named in this document (tags omitted). Residues count along the entry.
eGFP-DNA-PKcs-N (a.a. 1-426) (P78527, residues 1-426): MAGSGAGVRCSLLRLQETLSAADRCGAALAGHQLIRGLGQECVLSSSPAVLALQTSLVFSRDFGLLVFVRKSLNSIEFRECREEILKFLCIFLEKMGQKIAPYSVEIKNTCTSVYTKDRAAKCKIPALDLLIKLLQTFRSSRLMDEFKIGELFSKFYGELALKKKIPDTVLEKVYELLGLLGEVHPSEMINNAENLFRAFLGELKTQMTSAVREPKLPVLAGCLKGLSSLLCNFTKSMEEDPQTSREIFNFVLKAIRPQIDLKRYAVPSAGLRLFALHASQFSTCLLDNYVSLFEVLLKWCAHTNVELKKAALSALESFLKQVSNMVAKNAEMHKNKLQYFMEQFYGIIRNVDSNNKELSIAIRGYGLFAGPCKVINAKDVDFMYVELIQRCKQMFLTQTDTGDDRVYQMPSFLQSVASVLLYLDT
eGFP-DNA-PKcs-II (a.a. 427-1400) (P78527, residues 427-1400): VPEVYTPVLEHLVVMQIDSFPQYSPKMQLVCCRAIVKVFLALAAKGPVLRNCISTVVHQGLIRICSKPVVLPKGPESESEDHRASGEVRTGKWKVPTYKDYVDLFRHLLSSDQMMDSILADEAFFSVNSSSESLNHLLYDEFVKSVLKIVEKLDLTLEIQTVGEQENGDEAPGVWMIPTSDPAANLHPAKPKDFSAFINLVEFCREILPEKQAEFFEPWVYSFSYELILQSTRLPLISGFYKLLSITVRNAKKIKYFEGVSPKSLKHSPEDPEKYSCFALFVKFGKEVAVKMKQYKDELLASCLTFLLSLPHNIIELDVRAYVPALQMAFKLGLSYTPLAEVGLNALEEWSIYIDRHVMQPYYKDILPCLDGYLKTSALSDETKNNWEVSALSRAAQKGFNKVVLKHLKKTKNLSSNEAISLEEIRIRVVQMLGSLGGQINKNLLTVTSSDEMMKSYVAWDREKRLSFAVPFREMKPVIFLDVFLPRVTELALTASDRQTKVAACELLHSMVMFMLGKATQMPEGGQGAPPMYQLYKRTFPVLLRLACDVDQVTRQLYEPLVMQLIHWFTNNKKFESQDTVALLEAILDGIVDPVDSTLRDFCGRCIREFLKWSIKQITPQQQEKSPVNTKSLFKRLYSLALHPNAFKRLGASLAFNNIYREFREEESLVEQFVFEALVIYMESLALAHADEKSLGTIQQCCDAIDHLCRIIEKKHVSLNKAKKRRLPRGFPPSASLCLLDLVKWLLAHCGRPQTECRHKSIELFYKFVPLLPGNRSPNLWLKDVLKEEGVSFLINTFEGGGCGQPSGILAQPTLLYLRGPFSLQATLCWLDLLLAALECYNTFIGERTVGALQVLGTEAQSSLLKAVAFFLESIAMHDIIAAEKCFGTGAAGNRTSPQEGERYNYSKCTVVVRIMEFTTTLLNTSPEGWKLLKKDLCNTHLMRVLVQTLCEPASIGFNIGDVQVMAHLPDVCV
eGFP-DNA-PKcs-IV (a.a. 2401-3850) (P78527, residues 2401-3850): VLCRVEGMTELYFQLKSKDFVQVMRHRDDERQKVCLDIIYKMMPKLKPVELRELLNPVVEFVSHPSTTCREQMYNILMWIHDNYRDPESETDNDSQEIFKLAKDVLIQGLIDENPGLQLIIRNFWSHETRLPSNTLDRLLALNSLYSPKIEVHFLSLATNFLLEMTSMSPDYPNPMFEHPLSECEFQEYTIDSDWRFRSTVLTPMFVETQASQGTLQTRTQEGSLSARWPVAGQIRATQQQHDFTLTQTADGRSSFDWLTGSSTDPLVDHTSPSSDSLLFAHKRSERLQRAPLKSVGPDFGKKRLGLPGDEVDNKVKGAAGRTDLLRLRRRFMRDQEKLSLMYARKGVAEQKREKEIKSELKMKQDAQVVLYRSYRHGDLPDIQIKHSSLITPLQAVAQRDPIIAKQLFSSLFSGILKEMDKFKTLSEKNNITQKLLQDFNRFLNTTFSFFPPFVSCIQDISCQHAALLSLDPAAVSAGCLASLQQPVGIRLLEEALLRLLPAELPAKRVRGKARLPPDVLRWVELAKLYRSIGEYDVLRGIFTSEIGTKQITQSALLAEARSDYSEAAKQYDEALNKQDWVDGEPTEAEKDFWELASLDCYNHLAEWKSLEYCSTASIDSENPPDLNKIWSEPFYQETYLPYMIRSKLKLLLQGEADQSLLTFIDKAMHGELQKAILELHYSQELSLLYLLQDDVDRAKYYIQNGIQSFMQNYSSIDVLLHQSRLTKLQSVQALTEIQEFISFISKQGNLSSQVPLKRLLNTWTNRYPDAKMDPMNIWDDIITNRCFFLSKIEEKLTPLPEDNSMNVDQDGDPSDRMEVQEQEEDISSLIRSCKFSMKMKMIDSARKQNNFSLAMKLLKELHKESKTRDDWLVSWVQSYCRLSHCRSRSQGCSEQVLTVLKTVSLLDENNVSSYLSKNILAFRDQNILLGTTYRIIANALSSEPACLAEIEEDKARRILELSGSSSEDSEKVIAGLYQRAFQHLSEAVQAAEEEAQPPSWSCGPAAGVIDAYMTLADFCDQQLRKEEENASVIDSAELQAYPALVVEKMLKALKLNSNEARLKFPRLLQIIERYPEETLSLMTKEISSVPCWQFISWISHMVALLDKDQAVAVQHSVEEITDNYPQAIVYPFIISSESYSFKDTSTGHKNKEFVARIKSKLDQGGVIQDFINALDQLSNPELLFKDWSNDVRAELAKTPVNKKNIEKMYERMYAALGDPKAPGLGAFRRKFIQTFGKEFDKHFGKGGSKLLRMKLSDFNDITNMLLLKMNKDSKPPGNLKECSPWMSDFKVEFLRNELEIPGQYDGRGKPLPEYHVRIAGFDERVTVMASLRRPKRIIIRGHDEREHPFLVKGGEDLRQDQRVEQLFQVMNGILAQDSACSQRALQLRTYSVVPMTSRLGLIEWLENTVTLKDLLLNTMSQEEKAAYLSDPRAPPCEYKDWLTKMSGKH
eGFP-DNA-PKcs-C (a.a. 3700-4128) (P78527, residues 3700-4128): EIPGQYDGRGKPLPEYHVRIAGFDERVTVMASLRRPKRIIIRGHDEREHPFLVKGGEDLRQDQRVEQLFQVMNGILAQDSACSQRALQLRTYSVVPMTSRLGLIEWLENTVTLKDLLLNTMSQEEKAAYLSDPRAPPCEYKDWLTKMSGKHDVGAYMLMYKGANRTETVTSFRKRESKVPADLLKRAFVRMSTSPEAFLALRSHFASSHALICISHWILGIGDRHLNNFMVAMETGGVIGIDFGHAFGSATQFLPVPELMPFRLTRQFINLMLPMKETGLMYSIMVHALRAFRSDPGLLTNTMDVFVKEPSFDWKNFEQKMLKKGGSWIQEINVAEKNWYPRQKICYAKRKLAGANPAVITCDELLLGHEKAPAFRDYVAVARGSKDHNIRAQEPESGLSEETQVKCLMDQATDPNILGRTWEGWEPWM
UniProt P31749: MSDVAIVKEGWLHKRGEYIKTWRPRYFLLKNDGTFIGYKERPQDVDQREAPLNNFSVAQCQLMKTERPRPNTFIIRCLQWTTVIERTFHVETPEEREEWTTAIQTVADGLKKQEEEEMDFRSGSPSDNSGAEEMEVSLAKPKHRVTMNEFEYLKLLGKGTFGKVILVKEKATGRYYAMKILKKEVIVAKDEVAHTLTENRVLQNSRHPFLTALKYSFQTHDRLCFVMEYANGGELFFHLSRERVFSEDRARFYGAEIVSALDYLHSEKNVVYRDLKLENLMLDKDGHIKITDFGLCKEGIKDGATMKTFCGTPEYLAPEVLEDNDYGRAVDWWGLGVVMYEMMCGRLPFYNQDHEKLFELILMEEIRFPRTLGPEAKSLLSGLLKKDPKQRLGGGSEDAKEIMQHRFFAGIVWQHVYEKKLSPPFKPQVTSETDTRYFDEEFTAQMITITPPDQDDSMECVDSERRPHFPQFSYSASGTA
UniProt P31751: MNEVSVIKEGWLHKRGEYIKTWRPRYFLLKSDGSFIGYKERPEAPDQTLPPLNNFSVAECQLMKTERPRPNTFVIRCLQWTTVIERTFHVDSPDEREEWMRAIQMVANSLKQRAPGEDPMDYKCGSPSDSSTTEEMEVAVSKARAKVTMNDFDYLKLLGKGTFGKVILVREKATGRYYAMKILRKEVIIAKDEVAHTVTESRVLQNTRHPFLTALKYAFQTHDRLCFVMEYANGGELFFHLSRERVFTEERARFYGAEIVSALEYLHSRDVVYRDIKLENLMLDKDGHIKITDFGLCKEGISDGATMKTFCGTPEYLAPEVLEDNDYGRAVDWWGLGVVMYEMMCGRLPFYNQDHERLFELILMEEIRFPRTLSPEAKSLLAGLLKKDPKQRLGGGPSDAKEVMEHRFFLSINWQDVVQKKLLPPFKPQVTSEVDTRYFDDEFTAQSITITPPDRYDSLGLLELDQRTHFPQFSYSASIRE
UniProt Q9Y243: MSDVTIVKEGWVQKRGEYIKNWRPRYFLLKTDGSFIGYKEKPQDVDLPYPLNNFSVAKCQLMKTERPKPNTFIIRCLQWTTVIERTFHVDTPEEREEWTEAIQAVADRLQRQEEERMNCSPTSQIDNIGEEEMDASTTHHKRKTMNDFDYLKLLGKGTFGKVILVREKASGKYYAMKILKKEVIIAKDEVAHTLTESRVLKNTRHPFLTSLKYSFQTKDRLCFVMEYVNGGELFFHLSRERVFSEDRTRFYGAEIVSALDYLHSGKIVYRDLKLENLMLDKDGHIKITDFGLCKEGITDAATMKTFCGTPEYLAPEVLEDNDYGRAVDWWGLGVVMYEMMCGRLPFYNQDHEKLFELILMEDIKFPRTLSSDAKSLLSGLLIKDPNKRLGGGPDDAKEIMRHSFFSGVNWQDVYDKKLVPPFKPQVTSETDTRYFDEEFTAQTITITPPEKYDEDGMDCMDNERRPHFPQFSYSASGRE

What was measured:
[1] = target: eGFP-DNA-PKcs-N (a.a. 1-426) (UniProt P78527); assay: co-IP; A549 cells transfected with eGFP-DNA-PKcs-N only, mock irradiated or 4 Gy, lysed 5 and 10 min post-irradiation; GFP-Trap on the soluble fraction; blot for the endogenous Akt isoforms
[2] = target: eGFP-DNA-PKcs-N (a.a. 1-426) (UniProt P78527); assay: co-IP; parental MDA-MB-231 cells co-transfected with one of the Akt isoforms and eGFP-DNA-PKcs-N (Supplementary Figure S3)
[3] = target: eGFP-DNA-PKcs-N (a.a. 1-426) (UniProt P78527); assay: co-IP; A549 cells co-transfected with an mCherry-tagged Akt isoform and eGFP or an eGFP-tagged DNA-PKcs fragment; 48 h later irradiated with 4 Gy (mock irradiated too in Supplementary Figure S1; DMSO or MK2206 for 1 h before irradiation in Figure 3a), lysed 10 min later; eGFP precipitated from the soluble fraction with GFP-Trap; wash 10 mM Tris/Cl, 150 mM NaCl, 0.5 mM EDTA; blot with Akt isoform-specific antibodies
[4] = target: eGFP-DNA-PKcs-II (a.a. 427-1400) (UniProt P78527); assay: as above
[5] = target: eGFP-DNA-PKcs-IV (a.a. 2401-3850) (UniProt P78527); assay: as above
[6] = target: eGFP-DNA-PKcs-C (a.a. 3700-4128) (UniProt P78527); assay: as above

binding [1]	binding [2]	binding [3]	binding [4]	binding [5]	binding [6]	Substance
binds						endogenous Akt1 (from UniProt P31749 1-480)
no binding						endogenous Akt2 (from UniProt P31751 1-481)
	binds	binds	binds	binds	binds	mCherry-tagged full-length Akt3 (from UniProt Q9Y243 1-479)

The remaining lines, values behind:

Substance	binding [1]	binding [2]	binding [3]	binding [4]	binding [5]	binding [6]
endogenous Akt3 (from UniProt Q9Y243 1-479)	binds weakly					
mCherry-tagged full-length Akt1 (from UniProt P31749 1-480)		binds	binds	binds weakly	binds weakly	binds
mCherry-tagged full-length Akt2 (from UniProt P31751 1-481)		no binding	no binding	no binding	no binding	no binding
